Measurements from publication PMC12040169 (PLOS Biology, 2025).
The other results are listed elsewhere or left out.

Test system: T1, C. trachomatis L2/434/Bu expressing GFP (CTL2-GFP)
T1 construct: L2/434/Bu GFP intracellular growth in HeLa cells
Set-up: species or system HeLa; C. trachomatis total inclusion area by high-content imaging, normalised to DMSO
Conditions: total inclusion area; 28.5 h, 10 µM; inhibitor
Procedure, shortened: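 High-content images of fixed, Hoechst-stained infected cultures supply inclusion area and count (growth) plus nuclei number (viability), complementing bulk GFP/resorufin fluorescence. MIC determination is unchanged from the primary assay.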

SMILES | % of control remaining
COC(=O)C1C(=O)NC(SCC(=O)Nc2cccc(Cl)c2C)=C(C#N)C1c1ccccc1F (stereo not shown) [CBK265830] | 134.508
C[C@@H]1CN(C(=O)c2cscn2)C[C@H](C)O1 [CBK200371] | 94.4929
CN(C/C=C/c1ccccc1[N+](=O)[O-])CCc1ccccn1 [CBK261890] | 91.5623
O=C(CSc1ccc(-c2ccc(-n3ccnc3)cc2)nn1)NCc1ccco1 [CBK287717] | 65.9388
COc1ccc2sc(C)nc2c1 [CBK028488] | 124.548
CCCCSc1nnc(-c2ccc(Br)cc2)o1 [CBK027012] | 67.6642
O=C(N/N=C/c1c(O)ccc2ccccc12)c1cnccn1 [CBK262400] | 67.2556
Cc1ncc(CN(C)C(=O)c2cccc(NC(=O)C3CCCCC3)c2)s1 [CBK306295] | 85.4244
NS(=O)(=O)c1ccc(CCNC2CC(=O)N(CCc3ccccc3)C2=O)cc1 (stereo not shown) [CBK263502] | 120.702
CCN1CCC(Oc2nccnc2OCCN2CCOCC2)CC1 [CBK082931] | 122.871
O=C(Nc1cccc(S(=O)(=O)N2CCCC2)c1)c1nc[nH]n1 [CBK268353] | 79.5014
O=C(Cc1ccccn1)NC(Cc1cccs1)c1ccccn1 (stereo not shown) [CBK282243] | 101.866
O=C(CSc1nnc2c(n1)[nH]c1ccccc12)NCCOc1ccccc1 [CBK268358] | 73.7147
O=S(=O)(Nc1cccc(C(F)(F)F)c1)c1ccc(N2CCCNCC2)c2ccccc12 [CBK003929C] | 78.0576
Cc1nc(C(Cc2ccsc2)NC(=O)C2CCC(=O)N2)sc1C (stereo not shown) [CBK284780] | 90.5243
O=C(CN(c1cc(C(F)(F)F)ccc1Cl)S(=O)(=O)c1ccccc1)NCc1cccnc1 [CBK264607] | 98.8877
O=C(O)Cn1cnc(-c2ccc(Br)cc2)c1 [CBK262441] | 104.155
Cc1ccc2[nH]c(-c3cncn3C(C)CN3CCOCC3)c(C)c2c1 (stereo not shown) [CBK281794] | 74.1415
CCOC(=O)c1ccc(N2CC(C(=O)O)CC2=O)cc1 (stereo not shown) [CBK268106] | 95.8607
COC(=O)c1sccc1NS(=O)(=O)c1ccccc1C(F)(F)F [CBK034717] | 96.4313
COC(=O)c1c(NC(=S)NCc2cccs2)sc(C)c1-c1ccccc1 [CBK266943] | 137.951
CCCc1c(C)nc2ccccc2c1SCC(=O)O [CBK263558] | 33.2951
Cc1cc(Oc2ccccc2)nc(Oc2ccc(OCC(N)=O)nn2)n1 [CBK266687] | 101.288
O=C(c1cccnc1N1CCCCC1)N1CCCCC1 [CBK025882] | 76.7283
O=C(Cc1cc(F)c(F)c(F)c1)Nc1ccc2ncccc2c1 [CBK159811] | 93.1532
O=C1NN(c2cccc(Cl)c2)C(=O)/C1=C\c1ccc(-c2ccc3c(c2)C(=O)NC3=O)o1 [CBK262970] | 63.7923

SMILES | % of control remaining
Cc1cc(C)c(NS(=O)(=O)c2ccc(NC(=S)Nc3ccc(S(N)(=O)=O)cc3)cc2)c(C)c1 [CBK267005] | 91.1551
O=C(c1cscn1)N1CCCCC1c1nc2ccccc2[nH]1 (stereo not shown) [CBK283394] | 104.694
CCSc1ccc(-c2cn3ccnc3c(N3CCN(CCN(C)C)CC3)n2)cc1 [CBK066662] | 146.194
Cc1nc(NC(CC(C)C)C(=O)O)c2nc(C)oc2n1 (stereo not shown) [CBK022157] | 110.27
Cn1ccnc1C1(O)CC2CCC(C1)N2C(=O)c1cccc(F)c1 (stereo not shown) [CBK284089] | 111.582
Cc1cc(NC(=O)c2c(F)cccc2F)c2ccccc2n1 [CBK122737] | 90.4285
O=C(OCCN1C[C@H]2CCCCC2C1c1ccccc1)c1ccc(Br)cc1 (stereo partly shown) [CBK016175C] | 17.0876
Cc1ccc(C(=O)N2CCC(O)(c3cccnc3F)CC2)o1 [CBK284358] | 72.9846
Cc1ccc([N+](=O)[O-])cc1NC(=O)CSC1=NCCS1 [CBK267489] | 99.6599
CNC(=O)c1c(C)nc2ccccc2c1SCCC(=O)O [CBK154987T] | 103.057
O=C(O)CC(Cc1ccc(Cl)cc1)C(=O)NCc1ccccc1 (stereo not shown) [CBK286984] | 85.333
Cc1cc(S(=O)(=O)NCC(=O)OC(C)C)c(C)cc1Cl [CBK044196] | 100.233
O=C(O)C(c1c[nH]c2cc(F)ccc12)N1CCN(c2ccccc2)CC1 (stereo not shown) [CBK286675] | 86.0448
COc1ccc(S(=O)(=O)Nc2nc3c(s2)C(=O)CC(C)(C)C3)cc1 [CBK095611] | 93.4904
CCNC(=O)c1cncc(-c2[nH]nnc2-c2ccccc2)c1 [CBK160354] | 80.7141
CN1CCN(S(=O)(=O)c2ccc(NC(=O)c3cc(-c4cccnc4)nc4ccc(Cl)cc34)cc2)CC1 [CBK267734] | 94.7656
CCOC(=O)CN1CCC(Oc2nccnc2OC2CCCCC2)CC1 [CBK082867T] | 69.9059
COc1ccc(-c2cnc(N)c(N3CCN(C)CC3)n2)c(OC)c1OC [CBK063489] | 74.8299
COCC(=O)N1CCN2C(=O)[C@@H]3C[C@@H](OCc4ccc(F)cc4)CN3C(=O)[C@@H]2C1 [CBK289605] | 64.244
CCCNC(=O)Cn1ncc2c3sc(C)cc3n(CC)c2c1=O [CBK284171] | 91.0283
CC(C)(C)CC(=O)N[C@H]1C[C@H]2C(=O)Nc3ccccc3C(=O)N2C1 [CBK289352] | 84.5741
COc1ccc(C2(CNC(=O)c3ccc(C)cc3)CCOCC2)cc1 [CBK067060] | 107.188
CN(c1nc(-c2cccnc2)cn2ccnc12)C1CCCCC1 [CBK093609] | 89.781
CCOC(=O)c1sc(NS(=O)(=O)c2ccc(C(=O)O)cc2)cc1C [CBK296623] | 71.734
COc1cc(C#N)ccc1OCc1ccc2nc(C(F)(F)F)cc(Cl)c2c1 [CBK002589] | 63.3441
O=C(c1ccc(Br)o1)n1cc(C(F)(F)F)ccc1=O [CBK022391] | 69.7676
